Reference: PubChem BioAssay AID624417 (National Center for Advancing Translational Sciences (NCATS), 2012)
The campaign covered roughly 410,000 compounds. About 6,400 (1.6%) were called active. Inconclusive results, whose numbers are uncertain, are shown with a selection of clear calls. Calls come from the whole dose curve; as a rule, active = well fitted inhibition curve with a large enough effect; inconclusive = small, poorly fitted or top-dose-only effect; inactive = no such curve, though single readings can be large or run the other way. Potencies of inconclusive entries are left out as doubtful fits.

Each compound was assayed against Glucagon-like peptide 1 receptor (Homo sapiens) (UniProt P43220) (assay: qHTS of GLP-1 Receptor Inverse Agonists (Inhibition Mode)). Settings: HEK293 GLP-1R CRE-luciferase, luminescence, 24 h, GLP-1R form is constitutively active; activity change, negative = inhibition: at 38.3 µM (top of the series) unless noted.
How it was run: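 HEK293 cells stably co-expressing a cAMP-responsive luciferase reporter and constitutively active GLP-1R were seeded, incubated 12 h, then exposed to compounds for 24 h at 37 C. Luminescence was read 12 min after detection reagent; inverse agonists lower signal.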
% is set by controls: 0 for no effect and ±100 for the full control effect; potency is the fitted concentration of half-maximal effect; tags give direction and shape of the fitted curve.
Note: nearly all actives have a fitted effect of over 55% in size.

Sequence of UniProt P43220 (P43220 whole entry, looked up): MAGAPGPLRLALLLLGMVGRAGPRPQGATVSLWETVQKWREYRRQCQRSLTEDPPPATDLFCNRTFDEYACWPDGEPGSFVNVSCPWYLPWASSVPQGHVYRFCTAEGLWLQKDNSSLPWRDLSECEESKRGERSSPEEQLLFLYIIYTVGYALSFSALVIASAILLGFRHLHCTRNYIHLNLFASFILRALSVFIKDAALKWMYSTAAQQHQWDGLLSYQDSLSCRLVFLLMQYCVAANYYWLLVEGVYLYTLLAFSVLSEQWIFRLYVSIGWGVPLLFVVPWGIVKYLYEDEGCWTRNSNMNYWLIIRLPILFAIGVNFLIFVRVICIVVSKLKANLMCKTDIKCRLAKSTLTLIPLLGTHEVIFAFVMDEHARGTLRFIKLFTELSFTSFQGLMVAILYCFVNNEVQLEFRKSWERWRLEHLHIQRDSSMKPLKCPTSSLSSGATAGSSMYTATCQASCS

Structure (SMILES)	Potency	activity change, negative = inhibition
CCc1c(C)sc(NC(=S)NC(C)C2CCCO2)c1C(=O)OC (centres undefined)	inconclusive [inhibitor, single point]	
Cc1ccc2oc(C(=O)N3CCC(O)(c4ccccc4)CC3)c(C)c2c1	inconclusive [inhibitor, partial curve, poor fit]	
CC(C)c1ccc(NC(=S)Nc2ccc(OC(F)(F)F)cc2)cc1	inconclusive [inhibitor, single point]	
COC(=O)c1cn(C(=O)c2ccc(C)cc2C)c2ccccc12	active: 5.01 µM	
COc1ccccc1C(=O)Nc1ccccc1SC(=O)c1ccccc1OC	inconclusive [inhibitor, partial curve, poor fit]	
COc1ccc(C2=C(C)C(=O)N(Cc3ccc(C(=O)NCc4ccccc4C)cc3)S2(=O)=O)cc1	inconclusive [inhibitor, partial curve]	
O=S(=O)(NCCc1ccc(Cl)cc1)c1ccc(N2CCCCS2(=O)=O)cc1	inconclusive [inhibitor, partial curve]	
OCc1cn(-c2ccccc2)nc1-c1cc2ccccc2o1	inconclusive [inhibitor, single point]	
O=C(CS(=O)(=O)Cc1ccccc1)NCc1ccccc1Cl	inconclusive [inhibitor, single point]	
N#CC1=C(Nc2ccccc2)SC=C(c2ccc(Cl)c(Cl)c2)N=C1N1CCOCC1	inconclusive [inhibitor, single point]	
COc1ccc(N/N=C(\C#N)C(N)=O)cc1		inactive: -12%
O=C(N/N=C/c1ccc(Cl)cc1)c1sccc1OCc1ccc(F)cc1	inconclusive [inhibitor, full curve, poor fit]	
O=C(CNC(=O)c1ccc(Br)o1)NNC(=O)c1ccccc1		inactive: 37%
CCOC(=O)C1CCCCN1C(=O)c1ccc2nc(Cc3ccc(OC)cc3)oc2c1 (centres undefined)	inconclusive [inhibitor, single point]	
CN(Cc1ccccc1)C(=O)c1ccc(COc2ccccc2)cc1	inconclusive [inhibitor, single point]	
COC(=O)[C@]12CCCCC=C1N(Cc1ccc3c(c1)OCO3)C(=O)[C@H](CC(=O)NCCCCc1ccccc1)C2	inconclusive [inhibitor, single point]	
COc1ccccc1C(=O)NCCC(=O)N1CCN(c2cccc(C(F)(F)F)c2)CC1	inconclusive [inhibitor, single point]	
O=C(CN1C(=O)NC2(CCCCCC2)C1=O)c1ccc(Cl)cc1	inconclusive [inhibitor, single point]	
C(/CCc1ccccc1)=N\Nc1nc2ccccc2[nH]1		inactive: -21.4%
COc1cccc(NC(=O)C2C3C=CC4(O3)C2C(=O)N(CCCN2CCCC(C)C2)C4C(=O)NC2CCCCC2C)c1 (centres undefined)	inconclusive [inhibitor, partial curve, poor fit]	
O=C(NCCn1cc(SCc2ccc(C(F)(F)F)cc2)c2ccccc21)c1ccccc1F	inconclusive [inhibitor, partial curve, poor fit]	
Cn1cccc1/C=C1\SC(=S)N(NC(=O)c2ccc(Cl)cc2)C1=O	inconclusive [inhibitor, partial curve, poor fit]	

Structure (SMILES)	Potency	activity change, negative = inhibition
CN1CCN(c2oc(-c3ccccc3F)nc2S(=O)(=O)c2ccc(Cl)cc2)CC1	inconclusive [inhibitor, single point]	
CC1CCN(CC(O)COC2CC(C)CC(C)(C)C2)CC1 (centres undefined)	inconclusive [inhibitor, single point]	
O=C1NC(=S)SC1=C1CCCCCC1		inactive: -12%
CCOc1cc(C2C(C(=O)c3ccc(C)o3)=C(O)C(=O)N2CCc2ccccc2)ccc1O (centres undefined)	inconclusive [inhibitor, single point]	
O=C(NC(=S)NCCC1=CCCCC1)c1ccco1	inconclusive [inhibitor, single point]	
CCN(C(=O)CN1C(=O)NC(c2ccccc2)(c2ccccc2)C1=O)c1ccccc1	inconclusive [inhibitor, partial curve, poor fit]	
CCCSc1ncc(Cl)c(C(=O)Nc2ccc(OC)cc2OC)n1		inactive: 3.79%
CC1=CC(C)(C)n2c(O)c(N=NC(N)=S)c3cccc1c32	active: 4.47 µM	
COC(=O)C(C(=O)OC)c1ccccc1NS(=O)(=O)c1c(C)cc(C)cc1C	inconclusive [inhibitor, single point]	
COc1ccc(C(CC(=O)c2ccccc2)CC(=O)c2ccccc2)cc1OC	inconclusive [inhibitor, single point]	
Cc1ccc2nc(-c3ccccc3O)c(Nc3ccc4c(c3)OCCO4)n2c1	inconclusive [inhibitor, partial curve, poor fit]	
Cc1ccccc1/C=c1\s/c(=C\C(=O)C(C)(C)C)[nH]c1=O	inconclusive [inhibitor, partial curve, poor fit]	
Cc1ccc2oc(C(=O)NCC(c3ccco3)N3CCCC3)c(C)c2c1 (centres undefined)	inconclusive [inhibitor, partial curve, poor fit]	
COc1ccccc1-c1nc2c3ccccc3nc(=S)n2[nH]1	inconclusive [inhibitor, full curve, poor fit]	
CCOC(=O)C1=C(N)Oc2cc(O)ccc2C1c1ccc(Br)cc1 (centres undefined)	inconclusive [inhibitor, single point]	
COc1ccccc1CNC(=O)COC(=O)c1ccccc1-c1ccccc1	inconclusive [inhibitor, single point]	
CCOC(=O)C1(CC2CC2)CCN(S(=O)(=O)/C=C/c2ccccc2)CC1	inconclusive [inhibitor, single point]	
COc1ccc(NC(=O)COC(=O)CC23CC4CC(CC(C4)C2)C3)c([N+](=O)[O-])c1	inconclusive [inhibitor, partial curve, poor fit]	
CCSc1nc2ccccc2c(=O)n1Cc1ccc(F)cc1	inconclusive [inhibitor, single point]	
Cc1c(C(=O)O)cccc1-c1ccc(/C=C2\SC(=O)NC2=O)o1	inconclusive [inhibitor, partial curve]	
COc1cc(C(=O)Oc2ccccc2/C=N/NC(=O)c2ccc(C)cc2)cc(OC)c1OC	active: 1.58 µM	
CCc1cc(=O)n2[nH]c(-c3ccccc3)c(-c3ccccc3)c2n1	inconclusive [inhibitor, full curve, poor fit]	

Structure (SMILES)	Potency	activity change, negative = inhibition
CCN(Cc1ccc(OC)c(F)c1)C(C)C(=O)Nc1ccc(S(=O)(=O)N2CCCC2)cc1 (centres undefined)	inconclusive [inhibitor, single point]	
S=C(NCCc1ccc(Cl)cc1)NCc1ccccc1	inconclusive [inhibitor, partial curve, poor fit]	
O=C1CCC(/C=C/c2ccccc2)=NN1Cc1ccc(F)cc1	inconclusive [inhibitor, single point]	
C=CCn1c(SCC#N)nc2c(c1=O)C(C)(C)Cc1ccccc1-2	inconclusive [inhibitor, single point]	
O=C(COc1ccc(-c2ccccc2)cc1)NNC(=O)Nc1ccc(F)cc1F		inactive: 7.67%
COc1cc2ccccc2cc1C(=O)Nc1nnc(-c2ccncc2)o1		inactive: 8.93%
Cc1ccccc1CSc1cn(CCNC(=O)c2cccs2)c2ccccc12	inconclusive [inhibitor, single point]	
CCCCn1c(SCc2nc(N)nc(Nc3ccccc3C)n2)nc2ccccc2c1=O	inconclusive [inhibitor, single point]	
Cc1ccc2c(c1)C(=O)C(=O)N2CCOc1ccccc1	inconclusive [inhibitor, single point]	
c1ccc(-c2ccccc2OCCCN2CCCC2)cc1	inconclusive [inhibitor, single point]	
COc1ccc(OC)c(NC(=O)NCCN2CCN(c3ccccc3)CC2)c1	inconclusive [inhibitor, partial curve, poor fit]	
CCC(O)c1nc2ccccc2n1Cc1cccc(Cl)c1 (centres undefined)	inconclusive [inhibitor, partial curve, poor fit]	
CC(C)c1ccc(C2CC(=O)c3cnc(NC(=O)c4ccco4)nc3C2)cc1 (centres undefined)	inconclusive [inhibitor, single point]	
S=C(Nc1ccccc1Cl)N(CCN1CCCCC1)Cc1ccco1	inconclusive [inhibitor, partial curve, poor fit]	
CCOc1c(Br)cc(C(N)=O)cc1OCc1ccccc1	inconclusive [inhibitor, single point]	
Clc1ccccc1OCc1nc(-c2ccccn2)no1	inconclusive [inhibitor, partial curve, poor fit]	
Nc1nonc1-n1nnc(C(=O)N/N=C/c2ccc(Br)cc2)c1-c1ccc2c(c1)OCO2		inactive: -22.4%
COc1ccccc1NC(=S)NNC(=O)c1nn(C)c(C)c1Br		inactive: 29.5%
CCc1nnc(NC(=O)Cn2ccc(C(F)(F)F)n2)s1	inconclusive [inhibitor, partial curve, poor fit]	
Cc1ccc(/C=C/c2nc3ccccc3c(=O)[nH]2)cc1	inconclusive [inhibitor, full curve, poor fit]	
